# According to the supplement of paper PMC9446081:
# Out of some 39,000 compounds screened, about 220 (0.56%) showed activity. Some of the results follow.
# Test system: Escherichia coli K-12 BW25113
# Assay: relative growth (OD600 normalised to plate interquartile mean) (fraction); higher = less growth inhibition, active = 0.2 or less
# Conditions: 50 µM; LB; incubation time: overnight (16-24 h)
# 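Further: static incubation at 37 °C against the wild-type strain, values averaged over two biological replicates.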
row,SMILES,relative growth
1,COc1cccc(-c2cn(CC[C@@H]3CC[C@@H](NC(=O)CN(C)C)[C@@H](CO)O3)nn2)c1,inactive: 0.994
2,COc1ccccc1S(=O)(=O)N(C)C[C@H]1OCc2cnnn2CCCC(=O)N([C@@H](C)CO)C[C@@H]1C,inactive: 1.01
3,O=C(CN1CCOCC1)N[C@@H]1CC[C@@H](CCNC(=O)C2CCCCC2)O[C@@H]1CO,inactive: 1.02
4,Cc1noc(C)c1S(=O)(=O)Nc1ccc2c(c1)C(=O)N([C@@H](C)CO)C[C@@H](C)[C@H](CN(C)CC1CCCCC1)OCCCC[C@@H](C)O2,inactive: 1.02
5,N[C@@H](CCC(=O)N[C@@H](CCS[C@@H](CC(=O)O)C(=O)O)C(=O)NCC(=O)O)C(=O)O,inactive: 1.01
6,Cc1noc(C)c1NC(=O)N(C)C[C@@H]1OCCCC[C@@H](C)Oc2ccc(NC(=O)CCC(F)(F)F)cc2C(=O)N([C@H](C)CO)C[C@H]1C,inactive: 1.01
7,C[C@H]1CCCCO[C@@H](CN(C)S(=O)(=O)c2cccs2)[C@@H](C)CN([C@@H](C)CO)C(=O)c2cc(NC(=O)Nc3ccc4c(c3)OCO4)ccc2O1,inactive: 1.02
8,C[C@@H]1CN([C@@H](C)CO)C(=O)c2cc(NS(=O)(=O)c3ccc(F)cc3)ccc2O[C@@H](C)CCCCO[C@H]1CN(C)C(=O)NC1CCCCC1,inactive: 1.03
9,N[C@](CC1c2ccccc2Oc2ccccc21)(C(=O)O)[C@H]1C[C@@H]1C(=O)O,inactive: 1.01
10,COCC#Cc1ccc2c(c1)O[C@H](CN(C)C(=O)C1CCCCC1)[C@@H](C)CN([C@@H](C)CO)S2(=O)=O,inactive: 1.03
11,Cc1noc(C)c1NC(=O)Nc1ccc2c(c1)C(=O)N([C@@H](C)CO)C[C@H](C)[C@@H](CN(C)Cc1ccc3c(c1)OCO3)OCCCC[C@@H](C)O2,inactive: 0.98
12,C[C@@H]1CN([C@@H](C)CO)C(=O)c2cc(NC(=O)Nc3ccccc3)ccc2O[C@@H](C)CCCCO[C@@H]1CN(C)S(=O)(=O)c1cccs1,inactive: 1.05
13,O=c1[nH]nc2ccccn12,inactive: 1.01
14,C[C@@H]1CN([C@@H](C)CO)C(=O)c2cc(NS(=O)(=O)c3ccc(Cl)cc3)ccc2O[C@H]1CN(C)Cc1ccc(-c2ccccc2)cc1,inactive: 1.03
15,Cc1ccc(S(=O)(=O)Nc2cccc3c2O[C@@H](CN(C)Cc2ccc(-c4ccccc4)cc2)[C@@H](C)CN([C@@H](C)CO)C3=O)cc1,inactive: 1.02
16,Nc1nc(NC2CC2)c2ncn(C3C=CC(CO)C3)c2n1.O=S(=O)(O)O (centres undefined),inactive: 1.19
17,CN1CCN(C(=O)C[C@@H]2CC[C@H]3[C@@H](COC[C@H](O)CN3C(=O)Nc3cc(Cl)cc(Cl)c3)O2)CC1,inactive: 0.978
18,C[C@@H]1CCCCO[C@H](CN(C)S(=O)(=O)c2ccccc2)[C@@H](C)CN([C@H](C)CO)C(=O)c2cc(NS(=O)(=O)c3cn(C)cn3)ccc2O1,inactive: 0.978
19,COc1ccc2c3c(n(c2c1)C)[C@@H](CO)N(C[C@]13CN(C1)C(=O)Nc1cccc(c1)F)S(=O)(=O)C,inactive: 0.984
20,C[C@@H]1CN([C@H](C)CO)C(=O)c2cc(NC(=O)Nc3cccc4ccccc34)ccc2O[C@@H]1CN(C)Cc1ccccc1,inactive: 1.02

row,SMILES,relative growth
1,Cc1noc(C)c1NC(=O)N(C)C[C@H]1Oc2ccc(NS(=O)(=O)c3cccs3)cc2CC(=O)N([C@H](C)CO)C[C@H]1C,inactive: 0.985
2,C[C@H]1CN([C@@H](C)CO)C(=O)Cc2cc(NC(=O)Nc3ccc(C(F)(F)F)cc3)ccc2O[C@H]1CN(C)Cc1ccccc1,inactive: 1.04
3,O=C(C[C@H]1CC[C@H]2[C@@H](COC[C@@H](O)CN2C(=O)c2cccnc2)O1)NCc1ccc(-c2ccccc2)cc1,inactive: 1.02
4,C=C1C(c2ccc(C)cc2)=CCc2cc(C)cc(C)c21,inactive: 0.959
5,O=C(OC[C@H]1O[C@@H](OC(=O)c2cc(O)c(O)c(O)c2)[C@H](O)[C@@H](O)[C@@H]1O)c1cc(O)c(O)c(O)c1,inactive: 0.778
6,C[C@@H]1CN([C@@H](C)CO)C(=O)c2cc(NC(=O)c3ccncc3)ccc2O[C@@H](C)CCCCO[C@H]1CN(C)CC1CCCCC1,inactive: 0.996
7,COc1ccc(C#Cc2cnc3c(c2)C(=O)N([C@H](C)CO)C[C@H](C)[C@H](CN(C)S(=O)(=O)c2cn(C)cn2)O3)cc1OC,inactive: 1.01
8,COc1ccc(S(=O)(=O)N(C)C[C@H]2OCCCC[C@@H](C)Oc3ccc(NS(=O)(=O)c4ccc(Cl)cc4)cc3C(=O)N([C@@H](C)CO)C[C@H]2C)cc1,inactive: 1.03
9,Cc1cc(C)c2nnc(SCC(=O)O)n2n1,inactive: 1
10,Cc1noc(C)c1S(=O)(=O)Nc1ccc2c(c1)C(=O)N([C@H](C)CO)C[C@@H](C)[C@H](CN(C)S(=O)(=O)c1ccc(F)cc1)O2,inactive: 0.975
11,O=[N+]([O-])c1ccc(NCCO)c(OCCO)c1,inactive: 1.01
12,CC(C)Cc1cc(CN)on1,inactive: 1.04
13,C[C@@H]1CCCCO[C@@H](CN(C)CC2CC2)[C@@H](C)CN([C@H](C)CO)C(=O)c2cc(NC(=O)Nc3ccccc3)ccc2O1,inactive: 0.989
14,C[C@H](CO)N1C[C@H](C)[C@H](CN(C)C(=O)Nc2ccc(-c3ccccc3)cc2)OCc2ccccc2-c2c(n(C)c3ccccc23)C1=O,inactive: 1.02
15,COc1ccc(CN(C)C[C@H]2Oc3ccc(NC(=O)Nc4ccc(C(F)(F)F)cc4)cc3CC(=O)N([C@@H](C)CO)C[C@H]2C)cc1,inactive: 0.99
16,C[C@H]1CN([C@@H](C)CO)S(=O)(=O)c2ccc(C#CC(C)(C)O)cc2O[C@H]1CN(C)C(=O)C1CCCCC1,inactive: 0.995
17,COc1ccc2c3c([nH]c2c1)[C@H](CO)N(Cc1cc(ccc1F)F)C[C@]13CCN(CC1)C(=O)CN(C)C,inactive: 1.03
18,Cc1noc(C)c1NC(=O)N(C)C[C@@H]1Oc2ccc(NS(=O)(=O)c3ccccc3)cc2C(=O)N([C@@H](C)CO)C[C@@H]1C,inactive: 0.955
19,COCC#Cc1ccc2c(c1)O[C@@H](CN(C)C(=O)COC)[C@@H](C)CN([C@H](C)CO)S2(=O)=O,inactive: 1.01
